This note sets out measurements from article PMC4336329 (PLoS ONE, 2015).

Each structure is given as a SMILES string. The campaign covered roughly 310,000 compounds. About 14,000 (4.5%) showed an effect of 50% or more. The effect is printed as a negative number. The list shows a part of the results.
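Also: peak tail current of the secondary pulse compared with the same well before compound.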

Chain of human ether-à-go-go-related gene (hERG) potassium channel (Q12809 whole entry, looked up): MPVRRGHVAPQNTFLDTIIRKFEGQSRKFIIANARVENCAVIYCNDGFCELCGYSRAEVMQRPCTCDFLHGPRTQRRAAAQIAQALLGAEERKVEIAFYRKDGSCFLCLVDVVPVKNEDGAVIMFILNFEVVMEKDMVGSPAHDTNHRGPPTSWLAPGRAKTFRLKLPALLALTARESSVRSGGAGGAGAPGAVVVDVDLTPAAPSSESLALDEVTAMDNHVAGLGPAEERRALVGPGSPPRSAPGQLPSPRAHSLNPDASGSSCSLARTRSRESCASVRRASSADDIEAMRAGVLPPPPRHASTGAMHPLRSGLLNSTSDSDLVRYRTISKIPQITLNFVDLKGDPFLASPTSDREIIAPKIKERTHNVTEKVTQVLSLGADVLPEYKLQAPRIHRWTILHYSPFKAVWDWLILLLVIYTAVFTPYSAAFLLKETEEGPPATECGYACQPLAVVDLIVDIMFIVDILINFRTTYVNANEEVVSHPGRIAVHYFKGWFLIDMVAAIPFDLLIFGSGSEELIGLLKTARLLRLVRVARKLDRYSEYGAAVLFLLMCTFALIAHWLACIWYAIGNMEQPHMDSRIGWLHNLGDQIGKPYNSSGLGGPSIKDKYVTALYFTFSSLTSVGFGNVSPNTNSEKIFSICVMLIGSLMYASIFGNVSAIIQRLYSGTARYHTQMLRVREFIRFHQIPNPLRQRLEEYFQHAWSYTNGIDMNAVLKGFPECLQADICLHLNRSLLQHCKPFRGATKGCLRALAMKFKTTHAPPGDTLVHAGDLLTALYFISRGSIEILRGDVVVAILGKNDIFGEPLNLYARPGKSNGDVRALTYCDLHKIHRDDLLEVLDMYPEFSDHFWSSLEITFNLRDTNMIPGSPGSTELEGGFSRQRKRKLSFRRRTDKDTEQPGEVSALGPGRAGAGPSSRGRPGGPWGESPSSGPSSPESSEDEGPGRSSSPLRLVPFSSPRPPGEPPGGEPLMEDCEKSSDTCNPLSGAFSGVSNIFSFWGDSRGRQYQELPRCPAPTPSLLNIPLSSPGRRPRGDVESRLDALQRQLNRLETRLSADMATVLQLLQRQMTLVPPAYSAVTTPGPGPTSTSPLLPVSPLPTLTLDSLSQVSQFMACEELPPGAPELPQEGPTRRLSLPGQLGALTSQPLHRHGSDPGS

The assay addresses human ether-à-go-go-related gene (hERG) potassium channel (human, UniProt Q12809). Nature of the assay: primary screen, population patch clamp on CHO cells stably expressing hERG.
Regarding `COC(=O)c1ccc(SCC(=O)N2CCC(C)CC2)c([N+](=O)[O-])c1`, the “hERG current change (%, negative = inhibition) at 10uM” value is on record as -4.54%.

For the compound `CC(=O)Nc1ccc(OCC(=O)NCc2ccc(C)cc2)cc1`, the “hERG current change (%, negative = inhibition) at 10uM” value was determined as 5.29%. Next, `COc1ccc(OC(=O)c2ccc(OC)c(S(=O)(=O)N3CCOCC3)c2)cc1`: -26.3%; `CCOCCSc1nc2c(c(-c3cccs3)c1C#N)CC/C2=C/c1cccs1`: 12.9%. Next, `CCOc1ccc(S(=O)(=O)n2nc(C)cc2C)cc1`: 7.05%; `O=C1CN=C(c2cc([N+](=O)[O-])ccc2Cl)c2cc([N+](=O)[O-])ccc2N1`: -14.4%; `CCC(C)[C@@H](C(=O)Nc1ccc2c(c1)OCO2)N1Cc2ccccc2C1=O` (stereo partly drawn): -20.9%.

As to `Cc1ccc(S(=O)(=O)N(C)CC(=O)O/N=C(\N)c2cccc([N+](=O)[O-])c2)cc1`, the “hERG current change (%, negative = inhibition) at 10uM” value is reported as -66.8%. Next, `CN(CCCNC(=O)c1cc2c(Cl)nc3ccccc3c2s1)Cc1ccccc1`: -44.3%; `Cc1cc(Br)cc(C)c1OCCCCN(C)C.O=C(O)C(=O)O`: -54.4%.

As for `COC(=O)c1cc(S(=O)(=O)NC2CCC(C)CC2)cn1C` (stereo not drawn), the “hERG current change (%, negative = inhibition) at 10uM” value is listed as 11.4%. Take `CCOc1cc2c(cc1OCC)C(c1ccccc1)N(c1ccccc1)C(=O)C2` (stereo not drawn): the “hERG current change (%, negative = inhibition) at 10uM” value is -6.2%. In the case of `O=C(N/N=C/C1C(c2ccccc2)C1(Cl)Cl)c1cccc(Br)c1` (stereo not drawn), the “hERG current change (%, negative = inhibition) at 10uM” value is on record as 11%. Next, `CC(=O)c1c(C)[nH]c(C(=O)CSc2nnc(-c3ccccc3)o2)c1C`: 4.71%; `CCN1CCc2c(sc3c2c(NCc2ccco2)nc2nnnn23)C1`: -73.6%; `CCCn1c(SCC(=O)N2CCc3ccccc32)nnc1-c1ccco1`: 2.09%. Next, `Cc1ccc(NC(=S)N(CCN(C)C)Cc2cccs2)cc1C`: -46.7%; `Cn1nccc1C(=O)N1CCC(Cc2ccccc2)CC1`: -9.69%; `CCOc1cccc(N2C(=O)CC(N3CCC(C(N)=O)(N4CCCCC4)CC3)C2=O)c1` (stereo not drawn): 9.44%.

Take `O=C(Nc1nnc(-c2ccccc2)o1)Nc1ccc(F)cc1F`: the “hERG current change (%, negative = inhibition) at 10uM” value stood at 8.52%. Consider `O=C(O)c1ccc(N2C(=O)C3C4c5ccccc5C(Br)(c5ccccc54)C3C2=O)cc1` (stereo not drawn), for which the “hERG current change (%, negative = inhibition) at 10uM” value is reported as 18.8%.

For `CC(C)(C)NC(=O)CN(C(=O)CCC(=O)Nc1nccs1)c1cccc(C(F)(F)F)c1`, the “hERG current change (%, negative = inhibition) at 10uM” value is recorded as -16.5%. Take `COCc1c(CCl)cnc(C)c1O`: the “hERG current change (%, negative = inhibition) at 10uM” value was 28.8%. Next, `O=C(NCc1ccccn1)c1cccc(S(=O)(=O)Nc2ccc(SC(F)F)cc2)c1`: -36.9%; `COc1cccc2c1C(CO)N1C(C#N)C3CC(C(=O)O)C(C1C2)N3C` (stereo not drawn): 12.3%. Next, `O=C1C/C(=C\c2c(F)cccc2Cl)N2CCC1CC2`: -1.93%. The figure for `COc1ccc(CC(=O)N2CCC(c3ccccc3)C2)cc1` (stereo not drawn) is -10.1%. Regarding `Cc1sc(NC(=O)CCl)c(C(=O)c2ccccc2)c1C`, the “hERG current change (%, negative = inhibition) at 10uM” value worked out at 21.5%.

In the case of `CCN(CC)S(=O)(=O)c1cc(C(=O)Nc2cc(C)on2)c(Cl)cc1Cl`, the “hERG current change (%, negative = inhibition) at 10uM” value is 12.3%. Take `CCN(CC)CCNC(=O)CNC(=O)c1nn(-c2ccc(OC)c(OC)c2)c(=O)c2ccccc12`: the “hERG current change (%, negative = inhibition) at 10uM” value is 11%. Next, `Cc1ccc(NC(=O)C2CCN(S(=O)(=O)c3cccc4nonc34)CC2)nc1`: 5.58%; `COc1cc(C(=O)NCc2cccnc2)ccc1OCC(=O)Nc1cccc(C(F)(F)F)c1`: 3.13%; `N#C/C(=C\c1cc([N+](=O)[O-])c(N2CCOCC2)cc1N1CCOCC1)c1nc2ccccc2[nH]1`: -45.5%. The figure for `O=C(c1cc([N+](=O)[O-])ccc1Cl)N1CCN(c2ccccn2)CC1` is -18.8%; for `Cn1cc(S(=O)(=O)N2CCc3ccccc3C2)c(=O)n(C)c1=O` it is -5.18%; for `COc1ccc2c(c1OC)C(=O)N(c1nccs1)C2` it is 2.64%. Regarding `COc1ccc(C2/C(=C(/O)c3ccc4c(c3)CC(C)O4)C(=O)C(=O)N2CCCN2CCOCC2)cc1OC` (stereo not drawn), the “hERG current change (%, negative = inhibition) at 10uM” value was 1.5%. Next, `COc1ccccc1C(=O)COC(=O)c1nc(Cl)ccc1Cl`: -0.91%; `COc1cccc(NC(=O)C2CCN(c3cnccn3)CC2)c1`: 3.59%. For `O=C(Nc1nc(-c2ccccc2)c(-c2ccccc2)s1)c1ccc(S(=O)(=O)N2CCCC2)cc1`, the “hERG current change (%, negative = inhibition) at 10uM” value is recorded as -1.56%.

On to `CN(c1ccccc1)S(=O)(=O)c1nnc(NC(=O)c2ccco2)s1`, for which the “hERG current change (%, negative = inhibition) at 10uM” value stood at 17.6%. The figure for `CCOC(=O)C1CCCN(C(=O)c2sc3nc(-c4ccccc4)cn3c2C)C1` (stereo not drawn) is -59.8%.
